Results published in the supplement of paper PMC4604168 (melanoma cell lines).
This is one part of the list. Many values rest on one well or one pass, so single values are uncertain.

System: RVH-421
Assay: cell count relative to DMSO control; melanoma cells; higher = more viable cells
Conditions: library dose: standard library concentration; 72 h
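Further: cells treated in 1,536-well plates, then fixed and DAPI-stained, with nuclei counted from automated high-throughput microscope images.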

SMILES | cell count
Cn1cc(/C=C2\C(=O)Nc3cccnc32)c2ccccc21 + CCCCCCCCCCCC1=C(O)C(=O)C=C(O)C1=O [Embelin] (first compound 2 µM, partner dose 6 µM) | 76.3%
COc1ccc2c(c1)CCC1C2CCC2(C)C(NCCCCCCN3C(=O)C=CC3=O)CCC12 (stereo unspecified) + CCCCCCCCCCCC1=C(O)C(=O)C=C(O)C1=O [Embelin] (first compound 2 µM, partner dose 6 µM) | 59.8%
COc1cc2ncnc(Nc3ccc(Oc4ccccc4)cc3)c2cc1OC + Cn1cc(/C=C2\C(=O)Nc3cccnc32)c2ccccc21 [GW441756] (first compound 10 µM, partner dose 2 µM) | 106%
Cc1cc([N+](=O)[O-])ccc1NS(=O)(=O)c1cc(Cl)ccc1Cl + COc1cc(N2CCC(N3CCN(C)CC3)CC2)ccc1Nc1ncc(Cl)c(Nc2ccccc2S(=O)(=O)C(C)C)n1 [NVP-TAE684] (first compound 5 µM, partner dose 0.4 µM) | 81.7%
N#Cc1c(O)c2c(-c3ccc(-c4ccccc4O)cc3)csc2[nH]c1=O + COc1cc(N2CCC(N3CCN(C)CC3)CC2)ccc1Nc1ncc(Cl)c(Nc2ccccc2S(=O)(=O)C(C)C)n1 [NVP-TAE684] (first compound 10 µM, partner dose 0.4 µM) | 143%
O=S(=O)(c1ccccc1)N(CC(F)(F)F)c1ccc(C(O)(C(F)(F)F)C(F)(F)F)cc1 + Cc1cc([N+](=O)[O-])ccc1NS(=O)(=O)c1cc(Cl)ccc1Cl [FH535] (first compound 7 µM, partner dose 5 µM) | 51.2%
